Some of the results follow. Repeats are few or missing, and single values can be far off.
Tests used:
[1] = test system: hiPSC-derived cardiomyocytes; assay: time to death of most cells in well after compound addition (days); higher = less cardiotoxic; conditions: screen: 1; 10 µM
[2] = test system: hiPSC-derived cardiomyocytes; assay: time to death of most cells in well after compound addition (days); higher = less cardiotoxic; extreme values may be limits of the assay; conditions: 10 µM

Structure (SMILES)	time to death of most cells in well [1]	time to death of most cells in well ([2]; screen: 2)	time to death of most cells in well ([2]; screen: 3)	time to death of most cells in well ([2]; screen: 4)
O=c1c(O)c(-c2ccc(O)c(O)c2)oc2cc(O)cc(O)c12 [Quercetin]	> 7	> 7	> 7	> 7
CN(C[C@@H]1COCCO1)S(=O)(=O)Nc1ccc2ccc3ncc(-c4cnn(C)c4)cc3c(=O)c2c1	3.5	6	> 7	> 7
Oc1ccc(-c2nc(-c3ccc(F)cc3)c(-c3ccncc3)[nH]2)cc1	> 7	1	> 7	> 7
CN1CCN(C2CCN(C(=O)Nc3cc(Oc4ccc(NC(=O)C5(C(=O)Nc6ccc(F)cc6)CC5)c(F)c4)ccn3)CC2)CC1 [Golvatinib (E7050)]	> 7	> 7	> 7	> 7
CCN(CCO)CCCOc1ccc2c(Nc3cc(CC(=O)Nc4cccc(F)c4)[nH]n3)ncnc2c1 [Barasertib (AZD1152-HQPA)]	4	3	> 7	> 7
O=C(NOCC(O)CO)c1cc(Br)c(F)c(F)c1Nc1ccc(I)cc1F (stereo not given)	> 7	> 7	> 7	> 7
Cc1cc(Nc2ncc3c(n2)N(C)C(=O)N(c2cc(NC(=O)c4cccc(C(F)(F)F)c4)ccc2C)C3)n(C)n1	2.5	1.5	3	6.5
COc1cc(Nc2ncc(F)c(Nc3ccc4c(n3)NC(=O)C(C)(C)O4)n2)cc(OC)c1OC [R406 (free base)]	> 7	5	> 7	> 7
Cc1cc(Nc2cc(N3CCN(C)CC3)nc(/C=C/c3ccccc3)n2)n[nH]1	4	4.5	4.5	6.5
CCS(=O)(=O)c1cccc(-c2cc(C(=O)NC3CCN(C)CC3)c(C)c3[nH]c4ncc(C)cc4c23)c1	2	1	2.5	5

Source: the supplement of paper PMC6828730
